In the supplement of paper PMC4723716 one finds viability index data, which are given here for 36 compounds.

The assay has as its system Plasmodium falciparum NF54 stage V gametocytes. The assay can be described thus: viability index relative to DMSO control (fraction); higher = less gametocyte killing. Conditions: 2.5 µM, library set: Broad Institute DOS, incubation time: 72 h. The method in brief:
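P. falciparum NF54 stage V gametocytes (serum-free medium, 0.75% gametocytemia, 1.25% hematocrit) were exposed to compound at 2.5 µM for 72 hr at 37°C under low oxygen, then stained with MitoTracker Red CMXRos and saponin for one to two hours. Red particles of 20–70 µm2 in one field per well were counted, and the viability index is that count scaled to the plate mean of solvent-only wells.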

± gives the uncertainty stated by the source. Over roughly 9,900 compounds, “viability index relative to DMSO control” has its median near 1; the lowest 2% begin near 0.85. The list shows a part of the results.

Regarding `CC(C)(O)C#Cc1ccc([C@H]2[C@@H](CO)N3CCCCN(S(C)(=O)=O)C[C@@H]23)cc1`, the viability index turned out to be 1.03 ± 0.038. The compound `CN1CCN(C(=O)C[C@@H]2CC[C@@H]3[C@H](COC[C@@H](O)CN3CC3CCCCC3)O2)CC1` gave a viability index of 1.05 ± 0.041. To `N#C[C@H]1[C@H](c2ccc(-c3cccc(F)c3)cc2)[C@H](CO)N1C(=O)CN1CCOCC1` belongs 1.09 ± 0.024.

Turning to `C[C@@H]1CCCCO[C@@H](CN(C)S(=O)(=O)c2ccc(F)cc2)[C@H](C)CN([C@H](C)CO)C(=O)c2cc(N(C)C)ccc2O1`, the viability index was 1.06 ± 0.075.

In the case of `N#C[C@H]1[C@@H](c2ccc(C#CC3(O)CCCC3)cc2)[C@@H](CO)N1C(=O)C1CCCCC1`, the viability index is 1.08 ± 0.021. To `CN1C(=O)c2cc(NC(=O)c3cscn3)ccc2OC[C@@H]2O[C@@H](CC(=O)N3CCOCC3)CC[C@H]21` belongs 1.08 ± 0.077. To `CCNC[C@H]1[C@@H](c2ccccc2)[C@@H](CO)N1C(=O)Cc1ccccn1` belongs 0.97 ± 0.032; to `C[C@@H]1CN([C@@H](C)CO)C(=O)c2cc(NC(=O)CCC(F)(F)F)ccc2O[C@@H](C)CCCCO[C@H]1CN(C)C(=O)c1ccncc1`, 1.17 ± 0.031; to `CCCNC(=O)N1C[C@]2(CCN(Cc3nccs3)CC2)c2c([nH]c3cc(OC)ccc23)[C@@H]1CO`, 1.09 ± 0.019. To `COc1ccc2c3c([nH]c2c1)[C@H](CO)N(Cc1ccc(F)cc1)C[C@]31CN(C)C1` belongs 0.999 ± 0.012. Take `Cc1ccc(S(=O)(=O)Nc2ccc3c(c2)C(=O)N([C@H](C)CO)C[C@@H](C)[C@@H](CN(C)Cc2ccc(C(F)(F)F)cc2)O3)cc1`: the viability index stood at 1.05 ± 0.083. To `Cc1nn(C)cc1NC(=O)C[C@@H]1CC[C@@H]2[C@@H](COc3ccc(NC(=O)C4CCOCC4)cc3C(=O)N2C)O1` belongs 1.01 ± 0.17. To `O=C(c1ccc(F)cc1)N1CC(=O)N2[C@H](C1)[C@@H](c1ccc(C#CCC3CCCC3)cc1)[C@@H]2CO` belongs 1.08 ± 0.011. To `CO[C@H](CN(C)S(=O)(=O)c1ccc(C)cc1)[C@@H](C)CN(C(=O)Nc1ccccc1F)[C@H](C)CO` belongs 1.04 ± 0.057. `COc1ccc2c3c([C@H](CO)N(Cc4ccccc4F)C[C@]33CCN(CC3)C(=O)C3CCOCC3)n(C)c2c1` showed a viability index of 0.926 ± 0.078.

Take `COc1ccccc1NC(=O)N1C[C@@H](O)COC[C@@H]2O[C@@H](CC(=O)NCCc3ccncc3)CC[C@H]21`: the viability index stood at 1.038 ± 0.0098. To `Fc1cccc(-c2ccc([C@H]3[C@@H]4CN(Cc5cncnc5)C[C@H]3N4)cc2)c1` belongs 1.14 ± 0.068. To `CC(C)C(=O)Nc1ccc2c(c1)C(=O)N(C)[C@H]1CC[C@@H](CC(=O)NCCc3ccccc3)O[C@@H]1CO2` belongs 1.03 ± 0.06; to `COc1ccccc1CN1[C@@H]2CN(C(=O)C3CCOCC3)c3ccccc3[C@@H]2[C@@H]1CO`, 1.04 ± 0.051. To `COc1ccc2c3c([C@@H](CO)N(C[C@]33CCN(CC3)C(=O)c3ccccn3)S(C)(=O)=O)n(C)c2c1` belongs 0.961 ± 0.09. Turning to `CC(C)COC(=O)N(C)C[C@@H]1OCc2ccccc2-c2ccccc2C(=O)N([C@@H](C)CO)C[C@H]1C`, the viability index came out at 0.963 ± 0.14. To `Cc1noc(C)c1NC(=O)N(C)C[C@@H]1Oc2ccc(NC(=O)Cc3cn(C)c4ccccc34)cc2CC(=O)N([C@H](C)CO)C[C@@H]1C` belongs 1.01 ± 0.026; to `COc1ccc(-c2ccc([C@H]3[C@@H](C#N)N(C(=O)NC(C)C)[C@H]3CO)cc2)cc1`, 0.911 ± 0.012; to `CCCNC(=O)N(C)C[C@@H]1Oc2cc(C#C[C@H](C)O)ccc2S(=O)(=O)N([C@H](C)CO)C[C@@H]1C`, 0.995 ± 0.11. To `O=C(CCN1CCCCC1)N[C@@H]1CC[C@@H](CCn2cc(-c3cccc(F)c3)nn2)O[C@@H]1CO` belongs 1.12 ± 0.082; to `C[C@H](NC(=O)C[C@H]1CC[C@@H]2[C@H](COc3ccc(NC(=O)C4CCOCC4)cc3C(=O)N2C)O1)c1ccccc1`, 1.19 ± 0.15; to `COc1ccccc1NC(=O)N1CC(=O)N2[C@@H](CO)[C@@H](c3ccc(C#CC(C)C)cc3)[C@@H]2C1`, 1.094 ± 0.0054. To `C[C@@H]1CN([C@H](C)CO)C(=O)c2ccccc2-c2ccccc2CO[C@@H]1CN(C)S(=O)(=O)c1cn(C)cn1` belongs 1.01 ± 0.035; to `CN(C)CC(=O)N1[C@H](CO)[C@H](c2ccc(-c3cccc(C(=O)N(C)C)c3)cc2)[C@@H]1C#N`, 0.929 ± 0.014; to `CO[C@H](C(=O)N(C)C[C@H]1OCc2ccccc2-c2ccccc2C(=O)N([C@@H](C)CO)C[C@H]1C)c1ccccc1`, 0.992 ± 0.068.

Turning to `CCCN1[C@H](CO)[C@H](c2ccc(C#Cc3ccccc3)cc2)[C@@H]1CNC1CCCC1`, the viability index came to 0.914 ± 0.021. To `Cc1ccccc1S(=O)(=O)N1[C@@H]2CNC[C@H]1[C@@H]2c1ccc(-c2ccc(C#N)cc2)cc1` belongs 0.946 ± 0.024; to `Cc1ccc(S(=O)(=O)Nc2ccc3c(c2)CC(=O)N([C@H](C)CO)C[C@@H](C)[C@H](CN(C)S(=O)(=O)c2ccccc2)O3)cc1`, 1.02 ± 0.022. Turning to `Cc1ccc(S(=O)(=O)N[C@H]2C=C[C@H](CC(=O)NCc3ccc(Cl)c(Cl)c3)O[C@@H]2CO)cc1`, the viability index is 0.956 ± 0.017. Regarding `C[C@@H]1CCn2cc(nn2)COC[C@@H](c2ccccc2)NC1=O`, the viability index came out at 1.015 ± 0.005.

For the compound `CCCN(C)C[C@H]1OCCCC[C@@H](C)Oc2ccc(NC(=O)CCCN(C)C)cc2C(=O)N([C@H](C)CO)C[C@H]1C`, the viability index came to 1.11 ± 0.14.
